Laboratory results published in PMC6962326.
No constants are given. Whether binding was seen depends on the method and setting. For some assays here: Binding seen in cells or lysates may run through a third protein. Some binding calls cover weakened binding; strength is not graded here.

Protein sequences, listed by entry. Tags and fused reporters are not part of them. Lines headed by an entry give the natural chain unless they say otherwise; changes in a name come on top.
UniProt P10238: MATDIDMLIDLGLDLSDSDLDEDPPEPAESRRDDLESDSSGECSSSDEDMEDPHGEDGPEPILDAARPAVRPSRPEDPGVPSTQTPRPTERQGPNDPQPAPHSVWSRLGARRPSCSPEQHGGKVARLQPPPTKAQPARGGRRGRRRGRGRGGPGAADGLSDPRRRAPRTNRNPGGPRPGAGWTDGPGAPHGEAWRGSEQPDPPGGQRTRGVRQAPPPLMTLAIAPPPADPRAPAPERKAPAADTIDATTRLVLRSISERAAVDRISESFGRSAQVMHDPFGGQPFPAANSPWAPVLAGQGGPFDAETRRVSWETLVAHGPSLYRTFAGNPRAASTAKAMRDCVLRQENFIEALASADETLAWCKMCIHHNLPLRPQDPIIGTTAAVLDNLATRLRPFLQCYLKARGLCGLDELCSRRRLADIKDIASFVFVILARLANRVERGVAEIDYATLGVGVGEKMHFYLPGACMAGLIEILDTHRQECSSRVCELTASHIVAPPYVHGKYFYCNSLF
UniProt Q05048: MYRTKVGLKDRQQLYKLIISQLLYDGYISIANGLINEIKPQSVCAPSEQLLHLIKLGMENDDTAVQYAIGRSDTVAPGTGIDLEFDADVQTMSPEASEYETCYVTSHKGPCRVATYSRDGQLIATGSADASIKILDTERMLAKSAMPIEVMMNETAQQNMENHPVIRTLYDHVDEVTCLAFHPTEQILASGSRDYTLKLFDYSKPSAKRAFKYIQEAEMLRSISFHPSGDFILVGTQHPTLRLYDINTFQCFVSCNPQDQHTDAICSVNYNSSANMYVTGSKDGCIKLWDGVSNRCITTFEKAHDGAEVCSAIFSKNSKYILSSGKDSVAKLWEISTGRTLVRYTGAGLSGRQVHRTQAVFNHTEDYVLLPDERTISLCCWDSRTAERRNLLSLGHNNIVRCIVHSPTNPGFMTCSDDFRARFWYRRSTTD
UniProt O95639: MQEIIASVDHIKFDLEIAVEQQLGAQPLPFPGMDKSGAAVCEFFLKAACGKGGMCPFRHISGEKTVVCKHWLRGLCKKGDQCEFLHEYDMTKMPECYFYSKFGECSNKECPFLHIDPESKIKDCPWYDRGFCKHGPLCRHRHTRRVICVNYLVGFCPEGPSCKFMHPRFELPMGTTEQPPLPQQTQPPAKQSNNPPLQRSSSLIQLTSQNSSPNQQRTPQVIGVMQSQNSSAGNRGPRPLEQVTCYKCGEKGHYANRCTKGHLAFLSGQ

B1: recombinant Fip1 (protein, UniProt Q6UN15 1-594)
chain: MSAGEVERLVSELSGGTGGDEEEEWLYGGPWDVHVHSDLAKDLDENEVERPEEENASANPPSGIEDETAENGVPKPKVTETEDDSDSDSDDDEDDVHVTIGDIKTGAPQYGSYGTAPVNLNIKTGGRVYGTTGTKVKGVDLDAPGSINGVPLLEVDLDSFEDKPWRKPGADLSDYFNYGFNEDTWKAYCEKQKRIRMGLEVIPVTSTTNKITAEDCTMEVTPGAEIQDGRFNLFKVQQGRTGNSEKETALPSTKAEFTSPPSLFKTGLPPSRNSTSSQSQTSTASRKANSSVGKWQDRYGRAESPDLRRLPGAIDVIGQTITISRVEGRRRANENSNIQVLSERSATEVDNNFSKPPPFFPPGAPPTHLPPPPFLPPPPTVSTAPPLIPPPGFPPPPGAPPPSLIPTIESGHSSGYDSRSARAFPYGNVAFPHLPGSAPSWPSLVDTSKQWDYYARREKDRDRERDRDRERDRDRDRERERTRERERERDHSPTPSVFNSDEERYRYREYAERGYERHRASREKEERHRERRHREKEETRHKSSRSNSRRRHESEEGDSHRRHKHKKSKRSKEGKEAGSEPAPEQESTEATPAE
B2: recombinant CPSF73 (protein, UniProt Q9UKF6 1-684)
chain: MSAIPAEESDQLLIRPLGAGQEVGRSCIILEFKGRKIMLDCGIHPGLEGMDALPYIDLIDPAEIDLLLISHFHLDHCGALPWFLQKTSFKGRTFMTHATKAIYRWLLSDYVKVSNISADDMLYTETDLEESMDKIETINFHEVKEVAGIKFWCYHAGHVLGAAMFMIEIAGVKLLYTGDFSRQEDRHLMAAEIPNIKPDILIIESTYGTHIHEKREEREARFCNTVHDIVNRGGRGLIPVFALGRAQELLLILDEYWQNHPELHDIPIYYASSLAKKCMAVYQTYVNAMNDKIRKQININNPFVFKHISNLKSMDHFDDIGPSVVMASPGMMQSGLSRELFESWCTDKRNGVIIAGYCVEGTLAKHIMSEPEEITTMSGQKLPLKMSVDYISFSAHTDYQQTSEFIRALKPPHVILVHGEQNEMARLKAALIREYEDNDEVHIEVHNPRNTEAVTLNFRGEKLAKVMGFLADKKPEQGQRVSGILVKRNFNYHILSPCDLSNYTDLAMSTVKQTQAIPYTGPFNLLCYQLQKLTGDVEELEIQEKPALKVFKNITVIQEPGMVVLEWLANPSNDMYADTVTTVILEVQSNPKIRKGAVQKVSKKLEMHVYSKRLEIMLQDIFGEDCVSVKDDSILSVTVDGKTANLNLETRTVECEEGSEDDESLREMVELAAQRLYEALTPVH
B3: Fip1, endogenous (protein, UniProt Q6UN15 1-594)
chain: MSAGEVERLVSELSGGTGGDEEEEWLYGGPWDVHVHSDLAKDLDENEVERPEEENASANPPSGIEDETAENGVPKPKVTETEDDSDSDSDDDEDDVHVTIGDIKTGAPQYGSYGTAPVNLNIKTGGRVYGTTGTKVKGVDLDAPGSINGVPLLEVDLDSFEDKPWRKPGADLSDYFNYGFNEDTWKAYCEKQKRIRMGLEVIPVTSTTNKITAEDCTMEVTPGAEIQDGRFNLFKVQQGRTGNSEKETALPSTKAEFTSPPSLFKTGLPPSRNSTSSQSQTSTASRKANSSVGKWQDRYGRAESPDLRRLPGAIDVIGQTITISRVEGRRRANENSNIQVLSERSATEVDNNFSKPPPFFPPGAPPTHLPPPPFLPPPPTVSTAPPLIPPPGFPPPPGAPPPSLIPTIESGHSSGYDSRSARAFPYGNVAFPHLPGSAPSWPSLVDTSKQWDYYARREKDRDRERDRDRERDRDRDRERERTRERERERDHSPTPSVFNSDEERYRYREYAERGYERHRASREKEERHRERRHREKEETRHKSSRSNSRRRHESEEGDSHRRHKHKKSKRSKEGKEAGSEPAPEQESTEATPAE
B4: CPSF160, endogenous (protein, UniProt Q10570 1-1443)
chain: MYAVYKQAHPPTGLEFSMYCNFFNNSERNLVVAGTSQLYVYRLNRDAEALTKNDRSTEGKAHREKLELAASFSFFGNVMSMASVQLAGAKRDALLLSFKDAKLSVVEYDPGTHDLKTLSLHYFEEPELRDGFVQNVHTPRVRVDPDGRCAAMLVYGTRLVVLPFRRESLAEEHEGLVGEGQRSSFLPSYIIDVRALDEKLLNIIDLQFLHGYYEPTLLILFEPNQTWPGRVAVRQDTCSIVAISLNITQKVHPVIWSLTSLPFDCTQALAVPKPIGGVVVFAVNSLLYLNQSVPPYGVALNSLTTGTTAFPLRTQEGVRITLDCAQATFISYDKMVISLKGGEIYVLTLITDGMRSVRAFHFDKAAASVLTTSMVTMEPGYLFLGSRLGNSLLLKYTEKLQEPPASAVREAADKEEPPSKKKRVDATAGWSAAGKSVPQDEVDEIEVYGSEAQSGTQLATYSFEVCDSILNIGPCANAAVGEPAFLSEEFQNSPEPDLEIVVCSGHGKNGALSVLQKSIRPQVVTTFELPGCYDMWTVIAPVRKEEEDNPKGEGTEQEPSTTPEADDDGRRHGFLILSREDSTMILQTGQEIMELDTSGFATQGPTVFAGNIGDNRYIVQVSPLGIRLLEGVNQLHFIPVDLGAPIVQCAVADPYVVIMSAEGHVTMFLLKSDSYGGRHHRLALHKPPLHHQSKVITLCLYRDLSGMFTTESRLGGARDELGGRSGPEAEGLGSETSPTVDDEEEMLYGDSGSLFSPSKEEARRSSQPPADRDPAPFRAEPTHWCLLVRENGTMEIYQLPDWRLVFLVKNFPVGQRVLVDSSFGQPTTQGEARREEATRQGELPLVKEVLLVALGSRQSRPYLLVHVDQELLIYEAFPHDSQLGQGNLKVRFKKVPHNINFREKKPKPSKKKAEGGGAEEGAGARGRVARFRYFEDIYGYSGVFICGPSPHWLLVTGRGALRLHPMAIDGPVDSFAPFHNVNCPRGFLYFNRQGELRISVLPAYLSYDAPWPVRKIPLRCTAHYVAYHVESKVYAVATSTNTPCARIPRMTGEEKEFETIERDERYIHPQQEAFSIQLISPVSWEAIPNARIELQEWEHVTCMKTVSLRSEETVSGLKGYVAAGTCLMQGEEVTCRGRILIMDVIEVVPEPGQPLTKNKFKVLYEKEQKGPVTALCHCNGHLVSAIGQKIFLWSLRASELTGMAFIDTQLYIHQMISVKNFILAADVMKSISLLRYQEESKTLSLVSRDAKPLEVYSVDFMVDNAQLGFLVSDRDRNLMVYMYLPEAKESFGGMRLLRRADFHVGAHVNTFWRTPCRGATEGLSKKSVVWENKHITWFATLDGGIGLLLPMQEKTYRRLLMLQNALTTMLPHHAGLNPRAFRMLHVDRRTLQNAVRNVLDGELLNRYLYLSTMERSELAKKIGTTPDIILDDLLETDRVTAHF
B5: CPSF100, endogenous (protein, UniProt Q9P2I0 1-782)
chain: MTSIIKLTTLSGVQEESALCYLLQVDEFRFLLDCGWDEHFSMDIIDSLRKHVHQIDAVLLSHPDPLHLGALPYAVGKLGLNCAIYATIPVYKMGQMFMYDLYQSRHNTEDFTLFTLDDVDAAFDKIQQLKFSQIVNLKGKGHGLSITPLPAGHMIGGTIWKIVKDGEEEIVYAVDFNHKREIHLNGCSLEMLSRPSLLITDSFNATYVQPRRKQRDEQLLTNVLETLRGDGNVLIAVDTAGRVLELAQLLDQIWRTKDAGLGVYSLALLNNVSYNVVEFSKSQVEWMSDKLMRCFEDKRNNPFQFRHLSLCHGLSDLARVPSPKVVLASQPDLECGFSRDLFIQWCQDPKNSIILTYRTTPGTLARFLIDNPSEKITEIELRKRVKLEGKELEEYLEKEKLKKEAAKKLEQSKEADIDSSDESDIEEDIDQPSAHKTKHDLMMKGEGSRKGSFFKQAKKSYPMFPAPEERIKWDEYGEIIKPEDFLVPELQATEEEKSKLESGLTNGDEPMDQDLSDVPTKCISTTESIEIKARVTYIDYEGRSDGDSIKKIINQMKPRQLIIVHGPPEASQDLAECCRAFGGKDIKVYMPKLHETVDATSETHIYQVRLKDSLVSSLQFCKAKDAELAWIDGVLDMRVSKVDTGVILEEGELKDDGEDSEMQVEAPSDSSVIAQQKAMKSLFGDDEKETGEESEIIPTLEPLPPHEVPGHQSVFMNEPRLSDFKQVLLREGIQAEFVGGVLVCNNQVAVRRTETGRIGLEGCLCQDFYRIRDLLYEQYAIV
B6: CPSF73, endogenous (protein, UniProt Q9UKF6 1-684)
chain: MSAIPAEESDQLLIRPLGAGQEVGRSCIILEFKGRKIMLDCGIHPGLEGMDALPYIDLIDPAEIDLLLISHFHLDHCGALPWFLQKTSFKGRTFMTHATKAIYRWLLSDYVKVSNISADDMLYTETDLEESMDKIETINFHEVKEVAGIKFWCYHAGHVLGAAMFMIEIAGVKLLYTGDFSRQEDRHLMAAEIPNIKPDILIIESTYGTHIHEKREEREARFCNTVHDIVNRGGRGLIPVFALGRAQELLLILDEYWQNHPELHDIPIYYASSLAKKCMAVYQTYVNAMNDKIRKQININNPFVFKHISNLKSMDHFDDIGPSVVMASPGMMQSGLSRELFESWCTDKRNGVIIAGYCVEGTLAKHIMSEPEEITTMSGQKLPLKMSVDYISFSAHTDYQQTSEFIRALKPPHVILVHGEQNEMARLKAALIREYEDNDEVHIEVHNPRNTEAVTLNFRGEKLAKVMGFLADKKPEQGQRVSGILVKRNFNYHILSPCDLSNYTDLAMSTVKQTQAIPYTGPFNLLCYQLQKLTGDVEELEIQEKPALKVFKNITVIQEPGMVVLEWLANPSNDMYADTVTTVILEVQSNPKIRKGAVQKVSKKLEMHVYSKRLEIMLQDIFGEDCVSVKDDSILSVTVDGKTANLNLETRTVECEEGSEDDESLREMVELAAQRLYEALTPVH

target: GST-ICP27 (herpes simplex virus-1) (UniProt P10238); experiment: pull-down; GST pulldown with purified recombinant GST-ICP27 and recombinant Fip1, CPSF73 and CstF complex; input and pulldown analysed by western blotting; both purified

Q: How did the binding turn out when “recombinant CstF complex (from UniProt Q05048 1-431; P33240 1-577; Q12996 1-717)” was run?
A: no binding

Q: Which binding does the source give for B1 here?
A: binds

Q: For B2, which binding is on record?
A: binds

target: HSV-1 immediate early protein ICP27, expressed from wild-type HSV-1 in infected cells (herpes simplex virus-1 (KOS)) (UniProt P10238); experiment: co-IP; anti-ICP27 antibody (P1119) and protein G magnetic beads on lysates of cells infected with WT HSV-1 (KOS), harvested at different times post-infection; IP buffer 150 mM NaCl, 10 mM Tris-HCl pH 7.4, 1 mM EDTA, 1% Triton X-100, 0.5% NP-40, RNase A/T1; 4 h at 4 °C; western blotting

Q: How did the binding turn out when “CPSF30, endogenous (from UniProt O95639 1-269)” was run?
A: binds

Q: B3 was tested. Which binding did it give?
A: binds

Q: How did the binding turn out when B4 was run?
A: binds

Q: Which binding does the source give for B5 here?
A: binds

Q: How did the binding turn out when B6 was run?
A: binds
